In PMC6664820, “Novel natural and synthetic inhibitors of solute carriers SGLT1 and SGLT2” (Pharmacology Research & Perspectives, 2019):
About 40 (2%) of roughly 1,900 compounds showed an effect of 50% or more. The list shows a part of the results. Starred links: 1 amine or outer side, 2 acyl side, 3 side chain; linkers in the order of their positions; H or OH if unused. Positions of bridges follow the written chain, without caps; N, C: chain ends. Non-standard residues stand in square brackets, D forms with d. Residues, ends and D or L forms follow the SMILES beside them. ξ: configuration not given here. *: point of attachment. ΔAla(E,3-NHCONH2) = NC(=O)N/C=C(/N)C(=O)O; X1 = N=C1NCCC(C(N[*:1])C(=O)[*:2])N1; ξβ3hOrn = NCCCC(N)CC(=O)*; Dap = NC[CH](N)C(=O)O

The compounds below were run against human SGLT1 (hSGLT1) (human, UniProt P13866) (assay: primary screen, percent of control activity; higher = less effect of the substance). Conditions: 50 µM.
Set-up: single well
Summary of the method: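 Single-point screen at 50 µmol/L in CHO-hSGLT1 cells, with 160 µmol/L 1-NBD-glucose in glucose-free DMEM for 90 min at 37°C. Fluorescence from isopropanol extracts was calibrated, and CHO wild-type uptake was subtracted. Data are percent of uptake without compound.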

Point of comparison: `O=C(O)c1cc(O)c(=O)c2c(O)c(O)ccc2c1`, “NORMALIZED SGLT1 ACTIVITY (%)” value 141%. Against it:
- Cc1ccccc1OCC(O)CO (centres unmarked) — lower, 115%
- Cc1nccc2c1[nH]c1ccccc12 — higher, 443%
- CCCn1c(=O)c2nc(C3CCCC3)[nH]c2n(CCC)c1=O — higher, 180%
- O=C(O)c1cc(O)ccc1O — higher, 145%
- CC(=O)OCC(=O)[C@@]1(O)CCC2C3CCC4=CC(=O)C=CC4(C)C3[C@@H](O)C[C@@]21C (some centres unmarked) — lower, 123%
- CC(C)Cc1ccc(C(C)C(=O)O)cc1 (centres unmarked) — higher, 232%
- COc1ccc2c(c1)[C@@]1(C)CC[C@@H](O)C[C@@H]1CC2 — lower, 116%
- CC1(C)CC23C(=O)CCC(O)C2(C)CCC13 (centres unmarked) — lower, 101%
- CCN(CC)C(=S)SSC(=S)N(CC)CC — lower, 98%
- CC(=O)OC(C)(C)[C@@H]1Cc2cc3ccc(=O)oc3cc2O1 — higher, 152%
- C=C[C@@]1(C)CC(=O)[C@]2(O)[C@@]3(C)[C@@H](O)CCC(C)(C)[C@@H]3[C@H](O)[C@H](OC(C)=O)[C@@]2(C)O1 — lower, 67%
- O=C(O)c1cc(O)c2cccc(O)c2n1 — lower, 107%
- C[N+](C)(C)CC(=O)[O-].Cl — lower, 106%
- COc1ccc2[nH]cc(CCN)c2c1.Cl — lower, 120%
- CCC(C)C(=O)O[C@@H]1C[C@@]2(C)[C@H](c3ccoc3)OC(=O)CC23OC2(C)OC34[C@H](OC(=O)C(C)C)[C@@]3(O)[C@@H](OC(=O)C5(C)OC5C)[C@@]5(C)C[C@]3(O)[C@@](C)([C@H]5CC(=O)OC)C14O2 (some centres unmarked) — lower, 122%
- CC(C[N+](C)(C)C)OC(N)=O.[Cl-] (centres unmarked) — lower, 102%
- O.O=c1ccc2cc(O[C@@H]3O[C@H](CO)[C@@H](O)[C@H](O)[C@H]3O)c(O)cc2o1 — lower, 125%
- Cc1ccc(C(=O)C(C)CN2CCCCC2)cc1.Cl (centres unmarked) — lower, 107%
- C[C@H]1COc2c(N3CCN(C)CC3)c(F)cc3c(=O)c(C(=O)O)cn1c23 — lower, 137%
- C/C(=C(\CCOP(=O)(O)O)SC(=O)c1ccccc1)N(C=O)Cc1cnc(C)nc1N — lower, 104%
- COC(=O)Nc1nc2cc(C(=O)c3ccccc3)ccc2[nH]1 — higher, 192%
- C[C@]12CCC3c4ccc(O)cc4CCC3C1CCC2=O (some centres unmarked) — higher, 149%
- Cl.NC1C[C@H]1c1ccccc1 (some centres unmarked) — lower, 112%
- Cc1ccc(/N=C/N(C)/C=N/c2ccc(C)cc2C)c(C)c1 — lower, 105%
- C[N+]1(C)C2CC[C@H]1C[C@@H](OC(=O)C(O)c1ccccc1)C2.[Br-] (some centres unmarked) — lower, 82%
- CCCCNc1cc(C(=O)O)cc(S(N)(=O)=O)c1Oc1ccccc1 — lower, 111%
- COc1cc2c(cc1OC)C1C(=O)c3c(cc4c(c3O)C=CC(C)(C)O4)OC1CO2 (centres unmarked) — higher, 255%
- CC(=O)OCC(=O)[C@@]1(O)[C@H](C)C[C@H]2[C@@H]3CCC4=CC(=O)C=C[C@]4(C)[C@@]3(F)[C@@H](O)C[C@@]21C — higher, 148%
- CCS(=O)(=O)CCn1c([N+](=O)[O-])cnc1C — lower, 123%
- COc1ccc(C(=O)c2ccccc2)c(O)c1 — lower, 26%
- CC1=C(/C=C/C(C)=C/C=C/C(C)=C/C=C/C=C(C)/C=C/C=C(C)/C=C/C2=C(C)CCCC2(C)C)C(C)(C)CCC1 — higher, 155%
- N=C(N)NCCCCN.O=S(=O)(O)O — lower, 105%
- CC[C@H]1OC(=O)C[C@@H](O)[C@H](C)[C@@H](O[C@@H]2O[C@H](C)[C@@H](O[C@H]3C[C@@](C)(O)[C@@H](O)[C@H](C)O3)[C@H](N(C)C)[C@H]2O)[C@@H](CC=O)C[C@@H](C)C(=O)/C=C/C(C)=C/[C@@H]1CO[C@@H]1O[C@H](C)[C@@H](O)[C@@H](OC)[C@H]1OC — lower, 104%
- CC(C)(O)[C@@H]1[C@H]2OC(=O)[C@@H]1[C@]1(O)C[C@H]3O[C@]34C(=O)O[C@H]2[C@]14C — lower, 88%
- O=C(O)CCCc1ccc(N(CCCl)CCCl)cc1 — lower, 83%
- c1ccc2c(c1)sc1ccccc12 — higher, 264%
- COC(=O)C(O)[C@H]1C(C)(C)[C@@H](OC(C)=O)[C@@H]2CC3=C4CC(=O)O[C@@H](c5ccoc5)[C@]4(C)CCC3[C@@]1(C)C2=O (some centres unmarked) — lower, 75%
- COc1ccc2c(c1)OC/C(=C/c1ccc(OC)c(OC)c1)C2=O — lower, 110%
- CC[C@@H](CO)NCCN[C@@H](CC)CO.Cl.Cl — lower, 90%
- COC1=CC(=O)C[C@@H](C)[C@]12Oc1c(Cl)c(OC)cc(OC)c1C2=O — lower, 122%
- COC(=O)c1c(OC)cc2c(c1C)Oc1c(Cl)c(O)c(Cl)c(C)c1C(=O)O2 — higher, 520%
- N#Cc1c(Cl)cccc1Cl — lower, 120%
- CC(C)N(C(=O)CCl)c1ccccc1 — lower, 140%
- COc1c2c(cc3c1OCO3)C13C=C[C@H](OC)CC1N(C2)CC3O (some centres unmarked) — lower, 92%
- COc1c2c(cc3c1OCO3)CCN(C)C2 — lower, 86%
- Nc1nc(N)c2nc(CNc3ccc(C(=O)N[C@@H](CCC(=O)O)C(=O)O)cc3)cnc2n1 — higher, 197%
- CN1Cc2c(ccc3c2OCO3)C2C(O)Cc3cc4c(cc3C21)OCO4 (centres unmarked) — lower, 70%
- CC(C)c1c(O)ccc2c1CC[C@H]1C(C)(C)CCC[C@]21C — higher, 191%
- CC(=O)OCC(=O)[C@@]1(O)CCC2C3C[C@H](C)C4=CC(=O)C=CC4(C)C3[C@@H](O)CC21C (some centres unmarked) — higher, 184%
- OCC(O)CN1CCN(c2ccccc2)CC1 (centres unmarked) — lower, 115%
- CCCC1O[C@@H]2C[C@H]3[C@@H]4CCC5=CC(=O)C=C[C@]5(C)[C@H]4[C@@H](O)C[C@]3(C)[C@]2(C(=O)CO)O1 (some centres unmarked) — higher, 175%
- Cc1cc(O)ccc1Cl — higher, 157%
- COC(=O)Nc1nc2cc(C(=O)c3cccs3)ccc2[nH]1 — lower, 137%
- C=C1CC[C@@H]2[C@](C)(CO)[C@H](O)CC[C@@]2(C)[C@@H]1C/C=C1/C(=O)OC[C@H]1O — lower, 101%
- O=c1ccc2ccc(O)cc2o1 — higher, 161%
- O=P(O)(O)O.c1ccc(CN(CC2=NCCN2)c2ccccc2)cc1 — lower, 87%
- COC(=O)COc1ccc(Cl)cc1Cl — higher, 235%
- Nc1ccc(S(=O)(=O)c2ccc(N)cc2)cc1 — lower, 97%
- O=C1NS(=O)(=O)c2ccccc21 — lower, 91%
- CN(C)CCCN1c2ccccc2CCc2ccccc21.Cl — lower, 76%
- NC(=O)NCCC[C@H](N)C(=O)O — lower, 98%
- CC(N)C(O)c1ccc(O)c(O)c1.Cl (centres unmarked) — lower, 124%
- CCN(CC)CCOC(=O)C(Cc1cccc2ccccc12)CC1CCCO1.O=C(O)C(=O)O (centres unmarked) — lower, 116%
- C=C[C@H]1CN2CC[C@H]1C[C@@H]2[C@H](O)c1ccnc2ccc(OC)cc12.O=S(=O)(O)O — lower, 77%
- COc1ccc(-c2cc(C(F)F)nn2-c2ccc(S(N)(=O)=O)cc2)cc1F — higher, 144%
- O=c1cc(-c2ccccc2)oc2c(O)c(O)ccc12 — higher, 282%
- Cl.NNc1nncc2ccccc12 — higher, 144%
- CC(=O)OCC(=O)[C@@]12OC(C)(C)O[C@@H]1C[C@H]1[C@@H]3C[C@H](F)C4=CC(=O)C=C[C@]4(C)[C@@]3(F)[C@@H](O)C[C@@]12C — lower, 127%
- O=C1[N-]C(=O)C(c2ccccc2)(c2ccccc2)N1.[Na+] — lower, 129%
- C[C@@H]1C[C@@H]([C@H](O)CC2CC(=O)NC(=O)C2)C(=O)[C@@H](C)C1 — lower, 97%
- Clc1ccc2c(c1)C(N1CCNCC1)=Nc1ccccc1O2 — higher, 162%
- CCCCN(CC)c1c([N+](=O)[O-])cc(C(F)(F)F)cc1[N+](=O)[O-] — lower, 63%
- C[C@@H]1CC[C@@]2(OC1)OC1CC3C4CC=C5C[C@@H](O)CC[C@]5(C)C4CC[C@]3(C)C1[C@@H]2C (some centres unmarked) — lower, 97%
- Cl.c1cncc(C2CCCCN2)c1 (centres unmarked) — lower, 68%
- N=C(N)NCCCCNC(=N)N.O=S(=O)(O)O — lower, 113%
- N=C1NCCC(C2NC(=O)/C(=C\NC(N)=O)NC(=O)C(CNC(=O)CC(N)CCCN)NC(=O)C(CO)NC(=O)C(N)CNC2=O)N1.O=S(=O)(O)O (stereo not drawn) (H-[Dap]S[Dap](ξβ3hOrn)[ΔAla(E,3-NHCONH2)][X1]; lactam 1-C; configuration not given here) — lower, 116%
- N#CC(O[C@@H]1O[C@H](CO[C@@H]2O[C@H](CO)[C@@H](O)[C@H](O)[C@H]2O)[C@@H](O)[C@H](O)[C@H]1O)c1ccccc1 (some centres unmarked) — lower, 103%
- NC[C@H]1O[C@H](O[C@H]2[C@H](O)[C@@H](O[C@H]3O[C@H](CO)[C@@H](O)[C@H](N)[C@H]3O)[C@H](N)C[C@@H]2N)[C@H](O)[C@@H](O)[C@@H]1O.O=S(=O)(O)O — higher, 143%
- CC1(C)Oc2ccc3ccc(=O)oc3c2CC1O (centres unmarked) — higher, 159%
- CCn1cc(C(=O)O)c(=O)c2cc(F)c(N3CCNC(C)C3)c(F)c21.Cl (centres unmarked) — higher, 156%
- Nc1ncnc2c1ncn2[C@@H]1O[C@H](CO)[C@@H](O)[C@H]1O — higher, 161%
- COc1ccc(CN(CCN(C)C)c2ccccn2)cc1.O=C(O)/C=C\C(=O)O — lower, 62%
- Cc1cc(O)c(C=O)c(O)c1C(=O)O — lower, 102%
- O=C(O)c1cccnc1 — lower, 122%
- CCC(C)(C)C(=O)O[C@H]1C[C@@H](C)C=C2C=C[C@H](C)[C@H](CC[C@@H]3C[C@@H](O)CC(=O)O3)[C@H]21 — lower, 96%
- COc1ccc(C(c2ccc(OC)cc2)C(Cl)(Cl)Cl)cc1 — lower, 42%
- OCc1c[nH]c2ccccc12 — lower, 101%
- CN(Cc1cc(Br)cc(Br)c1N)C1CCCCC1.Cl — lower, 44%
- N[C@@H](Cc1c[nH]c2ccccc12)C(=O)O — lower, 101%
- CN1CCOC(c2ccccc2)c2ccccc2C1 (centres unmarked) — lower, 67%
- CC(=O)Oc1ccc(C(c2ccc(OC(C)=O)cc2)c2ccccn2)cc1 — lower, 109%
